# Article PMC12820563, “FoxP3 forms a head-to-head dimer in vivo and stabilizes its multimerization on adjacent microsatellites”
# Some of the results follow.
# Molecular target: T1, MBP-FoxP1dN (Mus musculus, UniProt P58462 326-579)
# T1 sequence: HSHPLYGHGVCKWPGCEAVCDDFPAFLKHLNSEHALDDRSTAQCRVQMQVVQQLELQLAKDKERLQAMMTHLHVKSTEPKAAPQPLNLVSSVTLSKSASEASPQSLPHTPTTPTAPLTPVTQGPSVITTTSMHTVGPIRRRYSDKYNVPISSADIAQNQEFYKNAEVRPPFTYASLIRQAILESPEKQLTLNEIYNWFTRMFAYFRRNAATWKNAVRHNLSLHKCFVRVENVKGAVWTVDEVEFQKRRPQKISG
# Experiment: PD-seq (MBP pull-down with sequencing); 20 mM Tris-HCl pH 7.5, 100 mM NaCl, 1.5 mM MgCl2, 0.4 uM protein, 0.1 uM dsDNA library, 30 min, room temperature, amylose pull-down; high values mean tight binding
# Settings: protein: recombinant; tags: His6-MBP; chain copies: 2; dsDNA, one strand shown
# Outline: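 Binding is reads-per-million enrichment of pull-down over input, with replicates pooled. It comes from 30 min room-temperature incubation in Tris pH 7.5 buffer with NaCl and MgCl2 of 0.4 µM His6-MBP-tagged, N-terminally truncated mouse FoxP3 or FoxP1 fragment from E. coli with 0.1 µM Klenow-filled degenerate double-stranded DNA library, followed by amylose resin capture, three washes and Illumina sequencing of the released DNA.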
row,Sequence,binding signal
1,GATGATTGTTCTCCCAGCTGATGAATTTTGTCGCTCGAGTAAACAAATTTTCCTAATCTTTCTGTTCAAGCGCCATCTAC,0.92 RPM ratio (pull-down/input)
2,GATGATTGTTCTCCCAGCTGATGAATTGATACCGTCGAGTAAACAAATTTTCCTAATCTTTCTGTTCAAGCGCCATCTAC,1.08 RPM ratio (pull-down/input)
3,GATGATTGTTCTCCCAGCTGATGAATTGTTCTTCTCGAGTAAACAAATTTTCCTAATCTTTCTGTTCAAGCGCCATCTAC,1.12 RPM ratio (pull-down/input)
4,GATGATTGTTCTCCCAGCTGATGAATTTCAAAAATCGAGTAAACAAATTTTCCTAATCTTTCTGTTCAAGCGCCATCTAC,1.15 RPM ratio (pull-down/input)
5,GATGATTGTTCTCCCAGCTGATGAATTACAAGCGTCGAGTAAACAAATTTTCCTAATCTTTCTGTTCAAGCGCCATCTAC,1.16 RPM ratio (pull-down/input)
6,GATGATTGTTCTCCCAGCTGATGAATTTATGGATTCGAGTAAACAAATTTTCCTAATCTTTCTGTTCAAGCGCCATCTAC,1.15 RPM ratio (pull-down/input)
7,GATGATTGTTCTCCCAGCTGATGAATTTTTGCCTTCGAGTAAACAAATTTTCCTAATCTTTCTGTTCAAGCGCCATCTAC,0.978 RPM ratio (pull-down/input)
8,GATGATTGTTCTCCCAGCTGATGAATTTTGTAGTTCGAGTAAACAAATTTTCCTAATCTTTCTGTTCAAGCGCCATCTAC,1.35 RPM ratio (pull-down/input)
9,GATGATTGTTCTCCCAGCTGATGAATTGAGCCTCTCGAGTAAACAAATTTTCCTAATCTTTCTGTTCAAGCGCCATCTAC,0.821 RPM ratio (pull-down/input)
10,GATGATTGTTCTCCCAGCTGATGAATTGTCTGAGTCGAGTAAACAAATTTTCCTAATCTTTCTGTTCAAGCGCCATCTAC,0.967 RPM ratio (pull-down/input)
11,GATGATTGTTCTCCCAGCTGATGAATTACCTTGCTCGAGTAAACAAATTTTCCTAATCTTTCTGTTCAAGCGCCATCTAC,0.985 RPM ratio (pull-down/input)
12,GATGATTGTTCTCCCAGCTGATGAATTAAGCAGTTCGAGTAAACAAATTTTCCTAATCTTTCTGTTCAAGCGCCATCTAC,0.979 RPM ratio (pull-down/input)
13,GATGATTGTTCTCCCAGCTGATGAATTAACTTTCTCGAGTAAACAAATTTTCCTAATCTTTCTGTTCAAGCGCCATCTAC,0.921 RPM ratio (pull-down/input)
14,GATGATTGTTCTCCCAGCTGATGAATTAACTGTTTCGAGTAAACAAATTTTCCTAATCTTTCTGTTCAAGCGCCATCTAC,0.973 RPM ratio (pull-down/input)
15,GATGATTGTTCTCCCAGCTGATGAATTCACGTAGTCGAGTAAACAAATTTTCCTAATCTTTCTGTTCAAGCGCCATCTAC,0.794 RPM ratio (pull-down/input)
16,GATGATTGTTCTCCCAGCTGATGAATTCTACTCGTCGAGTAAACAAATTTTCCTAATCTTTCTGTTCAAGCGCCATCTAC,0.902 RPM ratio (pull-down/input)
17,GATGATTGTTCTCCCAGCTGATGAATTTCCGCGGTCGAGTAAACAAATTTTCCTAATCTTTCTGTTCAAGCGCCATCTAC,0.761 RPM ratio (pull-down/input)
18,GATGATTGTTCTCCCAGCTGATGAATTCCTTCGCTCGAGTAAACAAATTTTCCTAATCTTTCTGTTCAAGCGCCATCTAC,0.786 RPM ratio (pull-down/input)
19,GATGATTGTTCTCCCAGCTGATGAATTAATAGTGTCGAGTAAACAAATTTTCCTAATCTTTCTGTTCAAGCGCCATCTAC,1.12 RPM ratio (pull-down/input)
20,GATGATTGTTCTCCCAGCTGATGAATTATCGTACTCGAGTAAACAAATTTTCCTAATCTTTCTGTTCAAGCGCCATCTAC,1.09 RPM ratio (pull-down/input)
21,GATGATTGTTCTCCCAGCTGATGAATTCCACAACTCGAGTAAACAAATTTTCCTAATCTTTCTGTTCAAGCGCCATCTAC,0.92 RPM ratio (pull-down/input)

row,Sequence,binding signal
1,GATGATTGTTCTCCCAGCTGATGAATTCCGGGCCTCGAGTAAACAAATTTTCCTAATCTTTCTGTTCAAGCGCCATCTAC,0.733 RPM ratio (pull-down/input)
2,GATGATTGTTCTCCCAGCTGATGAATTGCATTGTTCGAGTAAACAAATTTTCCTAATCTTTCTGTTCAAGCGCCATCTAC,1.43 RPM ratio (pull-down/input)
3,GATGATTGTTCTCCCAGCTGATGAATTGTCCTGATCGAGTAAACAAATTTTCCTAATCTTTCTGTTCAAGCGCCATCTAC,0.945 RPM ratio (pull-down/input)
4,GATGATTGTTCTCCCAGCTGATGAATTGTGGTGATCGAGTAAACAAATTTTCCTAATCTTTCTGTTCAAGCGCCATCTAC,1.1 RPM ratio (pull-down/input)
5,GATGATTGTTCTCCCAGCTGATGAATTGTAAACCTCGAGTAAACAAATTTTCCTAATCTTTCTGTTCAAGCGCCATCTAC,1.38 RPM ratio (pull-down/input)
6,GATGATTGTTCTCCCAGCTGATGAATTTACACGGTCGAGTAAACAAATTTTCCTAATCTTTCTGTTCAAGCGCCATCTAC,1.17 RPM ratio (pull-down/input)
7,GATGATTGTTCTCCCAGCTGATGAATTAGTAGGATCGAGTAAACAAATTTTCCTAATCTTTCTGTTCAAGCGCCATCTAC,0.889 RPM ratio (pull-down/input)
8,GATGATTGTTCTCCCAGCTGATGAATTCGCTGAATCGAGTAAACAAATTTTCCTAATCTTTCTGTTCAAGCGCCATCTAC,0.92 RPM ratio (pull-down/input)
9,GATGATTGTTCTCCCAGCTGATGAATTCGCTCGCTCGAGTAAACAAATTTTCCTAATCTTTCTGTTCAAGCGCCATCTAC,0.764 RPM ratio (pull-down/input)
10,GATGATTGTTCTCCCAGCTGATGAATTCCTGGCCTCGAGTAAACAAATTTTCCTAATCTTTCTGTTCAAGCGCCATCTAC,0.755 RPM ratio (pull-down/input)
11,GATGATTGTTCTCCCAGCTGATGAATTGTTATGGTCGAGTAAACAAATTTTCCTAATCTTTCTGTTCAAGCGCCATCTAC,1.51 RPM ratio (pull-down/input)
12,GATGATTGTTCTCCCAGCTGATGAATTACGCGAGTCGAGTAAACAAATTTTCCTAATCTTTCTGTTCAAGCGCCATCTAC,0.949 RPM ratio (pull-down/input)
13,GATGATTGTTCTCCCAGCTGATGAATTCACGCTTTCGAGTAAACAAATTTTCCTAATCTTTCTGTTCAAGCGCCATCTAC,0.98 RPM ratio (pull-down/input)
14,GATGATTGTTCTCCCAGCTGATGAATTCAAAAAATCGAGTAAACAAATTTTCCTAATCTTTCTGTTCAAGCGCCATCTAC,0.976 RPM ratio (pull-down/input)
15,GATGATTGTTCTCCCAGCTGATGAATTTCTCGTCTCGAGTAAACAAATTTTCCTAATCTTTCTGTTCAAGCGCCATCTAC,0.786 RPM ratio (pull-down/input)
16,GATGATTGTTCTCCCAGCTGATGAATTTCGGCACTCGAGTAAACAAATTTTCCTAATCTTTCTGTTCAAGCGCCATCTAC,0.806 RPM ratio (pull-down/input)
17,GATGATTGTTCTCCCAGCTGATGAATTTATTACTTCGAGTAAACAAATTTTCCTAATCTTTCTGTTCAAGCGCCATCTAC,1.29 RPM ratio (pull-down/input)
18,GATGATTGTTCTCCCAGCTGATGAATTTCAGGCCTCGAGTAAACAAATTTTCCTAATCTTTCTGTTCAAGCGCCATCTAC,0.784 RPM ratio (pull-down/input)
19,GATGATTGTTCTCCCAGCTGATGAATTAACCGCCTCGAGTAAACAAATTTTCCTAATCTTTCTGTTCAAGCGCCATCTAC,0.908 RPM ratio (pull-down/input)
20,GATGATTGTTCTCCCAGCTGATGAATTGTGTGCATCGAGTAAACAAATTTTCCTAATCTTTCTGTTCAAGCGCCATCTAC,1.46 RPM ratio (pull-down/input)
21,GATGATTGTTCTCCCAGCTGATGAATTTAGACACTCGAGTAAACAAATTTTCCTAATCTTTCTGTTCAAGCGCCATCTAC,1.01 RPM ratio (pull-down/input)

row,Sequence,binding signal
1,GATGATTGTTCTCCCAGCTGATGAATTGAAATTTTCGAGTAAACAAATTTTCCTAATCTTTCTGTTCAAGCGCCATCTAC,1 RPM ratio (pull-down/input)
2,GATGATTGTTCTCCCAGCTGATGAATTGCTCTACTCGAGTAAACAAATTTTCCTAATCTTTCTGTTCAAGCGCCATCTAC,0.974 RPM ratio (pull-down/input)
3,GATGATTGTTCTCCCAGCTGATGAATTAACTCAGTCGAGTAAACAAATTTTCCTAATCTTTCTGTTCAAGCGCCATCTAC,0.845 RPM ratio (pull-down/input)
4,GATGATTGTTCTCCCAGCTGATGAATTCTCCGATTCGAGTAAACAAATTTTCCTAATCTTTCTGTTCAAGCGCCATCTAC,0.874 RPM ratio (pull-down/input)
5,GATGATTGTTCTCCCAGCTGATGAATTCGGAATGTCGAGTAAACAAATTTTCCTAATCTTTCTGTTCAAGCGCCATCTAC,0.841 RPM ratio (pull-down/input)
6,GATGATTGTTCTCCCAGCTGATGAATTTCAAGTCTCGAGTAAACAAATTTTCCTAATCTTTCTGTTCAAGCGCCATCTAC,0.741 RPM ratio (pull-down/input)
7,GATGATTGTTCTCCCAGCTGATGAATTCTTAGACTCGAGTAAACAAATTTTCCTAATCTTTCTGTTCAAGCGCCATCTAC,0.849 RPM ratio (pull-down/input)
8,GATGATTGTTCTCCCAGCTGATGAATTCACGGGGTCGAGTAAACAAATTTTCCTAATCTTTCTGTTCAAGCGCCATCTAC,0.741 RPM ratio (pull-down/input)
9,GATGATTGTTCTCCCAGCTGATGAATTTCTTGAGTCGAGTAAACAAATTTTCCTAATCTTTCTGTTCAAGCGCCATCTAC,0.919 RPM ratio (pull-down/input)
10,GATGATTGTTCTCCCAGCTGATGAATTCACTTATTCGAGTAAACAAATTTTCCTAATCTTTCTGTTCAAGCGCCATCTAC,0.87 RPM ratio (pull-down/input)
11,GATGATTGTTCTCCCAGCTGATGAATTAAAAAGGTCGAGTAAACAAATTTTCCTAATCTTTCTGTTCAAGCGCCATCTAC,0.84 RPM ratio (pull-down/input)
12,GATGATTGTTCTCCCAGCTGATGAATTTACCAAATCGAGTAAACAAATTTTCCTAATCTTTCTGTTCAAGCGCCATCTAC,1.65 RPM ratio (pull-down/input)
13,GATGATTGTTCTCCCAGCTGATGAATTCGTAGCATCGAGTAAACAAATTTTCCTAATCTTTCTGTTCAAGCGCCATCTAC,1.03 RPM ratio (pull-down/input)
14,GATGATTGTTCTCCCAGCTGATGAATTATAGGTATCGAGTAAACAAATTTTCCTAATCTTTCTGTTCAAGCGCCATCTAC,1.13 RPM ratio (pull-down/input)
15,GATGATTGTTCTCCCAGCTGATGAATTATATCTGTCGAGTAAACAAATTTTCCTAATCTTTCTGTTCAAGCGCCATCTAC,1.08 RPM ratio (pull-down/input)
16,GATGATTGTTCTCCCAGCTGATGAATTTGTCTGCTCGAGTAAACAAATTTTCCTAATCTTTCTGTTCAAGCGCCATCTAC,0.987 RPM ratio (pull-down/input)
17,GATGATTGTTCTCCCAGCTGATGAATTACAAAAGTCGAGTAAACAAATTTTCCTAATCTTTCTGTTCAAGCGCCATCTAC,1.35 RPM ratio (pull-down/input)
18,GATGATTGTTCTCCCAGCTGATGAATTACTTAGGTCGAGTAAACAAATTTTCCTAATCTTTCTGTTCAAGCGCCATCTAC,0.952 RPM ratio (pull-down/input)
19,GATGATTGTTCTCCCAGCTGATGAATTCCCCCGGTCGAGTAAACAAATTTTCCTAATCTTTCTGTTCAAGCGCCATCTAC,0.738 RPM ratio (pull-down/input)
20,GATGATTGTTCTCCCAGCTGATGAATTTTCCGCATCGAGTAAACAAATTTTCCTAATCTTTCTGTTCAAGCGCCATCTAC,1.22 RPM ratio (pull-down/input)
21,GATGATTGTTCTCCCAGCTGATGAATTTCATAGCTCGAGTAAACAAATTTTCCTAATCTTTCTGTTCAAGCGCCATCTAC,0.849 RPM ratio (pull-down/input)
